Results on 55 molecules are retold here after PubChem BioAssay AID1508624 (National Center for Advancing Translational Sciences (NCATS), 2021).

The whole screen tested about 48,000 compounds, of which about 120 (0.25%) were called active. Another 4% or so got no clear call; they are omitted. The call rests on the fitted dose curve; in most records, active means well fitted activation curve with a large enough effect; inconclusive means small, poorly fitted or top-dose-only effect, or another doubt; inactive means no such curve, though single readings can be large or run the other way. Some of the results follow.

The nature of the assay: Primary qHTS for Identification of Small Molecule Activators of Huntingtin-Antisense Promoter Activity. Further: nearly all actives have a fitted effect of over 55% in size. The following applies: HEK293 HTT-AS promoter firefly luciferase reporter, 24 h; series mostly up to 57.5 µM; activity change, positive = activation: at the top concentration. In a few lines: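 Firefly luciferase readout (Dual-Glo, 10 min RT) after 24 h, 37 °C compound exposure (final up to 57.5 uM) of HEK293 reporter cells cultured 24 h beforehand; PTC124 at 50 uM final as control inhibitor; activity scaled vehicle 0%, zero RLU -100%.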
For `CCc1ccc(C(=O)c2cn(CC(=O)Nc3ccc4c(c3)OCO4)c3ccc(F)cc3c2=O)cc1`, the “activity change, positive = activation” value is inactive: -36.4%.
As to `Cn1c(=O)oc2cc(S(=O)(=O)NC(Cc3ccccc3)C(=O)NCc3ccccc3Cl)ccc21` (stereo not given), the “activity change, positive = activation” value is inactive: 9.18%.
The value for `CCOc1ccccc1CNC(=O)C1CCN(c2nc3ccccc3nc2C(F)(F)F)CC1` was inactive: 8.47%; that for `COc1ccc(-c2n[nH]c3c2cnc2cc(OC)c(OC)cc23)cc1` was inactive: 1.32%; that for `Cc1ccc(CSC2=Nc3ccccc3C3=NC(CC(=O)NCc4ccc5c(c4)OCO5)C(=O)N23)cc1` (stereo not given) was inactive: 0.334%.
As for `COc1cc(OC)c(NC(=O)c2ccc3c(c2)N(Cc2ccc(C)cc2)CCS3)cc1Cl`, the figure is inactive: -9.5%; as for `Cc1cccc(C2N=C(N)Nc3nc4ccccc4n32)c1` (stereo not given), inactive: -18.7%.
The value for `COc1cc(C(=O)N2CCN(C(=O)COc3cccc(C)c3)CC2)cc(OC)c1OC` was inactive: 13.2% [at 11.5 µM, percent change from vehicle, -100% = no light]; that for `COc1ccc(N2CCN(C(=O)c3cnn(-c4ccc(OC)cc4)c3C3CCN(C(=O)OC(C)(C)C)CC3)CC2)cc1` was inactive: 0.853%; that for `Cc1cccc(C(=O)N(Cc2ccccc2F)C2CCS(=O)(=O)C2)c1` (stereo not given) was inactive: -7.39%.
Regarding `C=CC[C@@H]1C=C(C)C[C@H](C)C[C@H](OC)[C@H]2O[C@@](O)(C(=O)C(=O)N3CCCC[C@H]3C(=O)O[C@H](C(C)=C[C@@H]3CC[C@H](O)[C@H](OC)C3)[C@@H](C)[C@@H](O)CC1=O)[C@@H](C)C[C@@H]2OC`, the “activity change, positive = activation” value was inactive: -26.4%.
As for `COC(=O)c1c(NC(=O)COc2cccc(C(F)(F)F)c2)sc2c1CCCC2`, the figure is inactive: 9.49% [at 11.5 µM, percent change from vehicle, -100% = no light]; as for `COc1ccc(Cc2nc3c4cnn(-c5cccc(F)c5)c4ncn3n2)cc1`, inactive: -12.8%; as for `CCCNC(=O)N1CCCN(S(=O)(=O)c2ccc3c(ccn3CC)c2)CC1`, inactive: -14%.
The value for `Cc1c(Cl)cccc1-c1ccc(/C=C(\C#N)c2nc3ccccc3[nH]2)o1` was inactive: -10.6%; that for `C=C[C@@H]1CN2CCC1C[C@H]2[C@H](O)c1ccnc2ccc(OC)cc12` (stereo not given in full) was inactive: -11.5%.
The value for `CCCCOc1cccc(C(=O)N2CCN(CCc3ccncc3)CC2)c1` was inactive: -11.4%; that for `CCN(CC)c1ccc(NS(=O)(=O)c2cc(-c3cc(C)no3)ccc2C)c(C)c1` was inactive: -32.9%.
In the case of `Cc1ccc(CNC(=O)C2CCCN(c3ncnc4onc(-c5ccc(F)cc5)c34)C2)cc1` (stereo not given), the “activity change, positive = activation” value is inactive: -12%.
Consider `CN1CC(=O)Nc2cc(C(=O)O)ccc21`, for which the “activity change, positive = activation” value was inactive: -13.7%.
The value for `COc1ccc(OC)c(NC(=O)Cn2c(=O)cc(C)c3c(C)nn(-c4cccc(Cl)c4C)c32)c1` was inactive: -15.6%.
The value for `O=C(CN1C(=O)CCSc2ccccc21)Nc1ccc(C(F)(F)F)cc1` was inactive: -41.5%.
In the case of `CCOc1ccccc1C(=O)Nc1ccc(S(=O)(=O)N(Cc2ccccc2)c2ccccc2)cc1`, the activity change, positive = activation is inactive: 19.9% [at 11.5 µM, percent change from vehicle, -100% = no light].
As for `CCOC(=O)c1ccccc1NC(=O)Cn1ccn2nc(-c3ccc(OCC)cc3)cc2c1=O`, the figure is inactive: -8.5%; as for `Cc1ccc(-n2cc(C(=O)OCc3ccc(F)c(F)c3)c3ccccc3c2=O)cc1`, inactive: -11.2%.
The value for `CCCN1Cc2cccc(C(=O)Nc3ccccc3C(=O)OC)c2C1=O` was inactive: -9.9%.
As for `CCOc1ccc(NC(=O)CN2CCN(CC(=O)Nc3ccc(F)cc3F)CC2)cc1`, the figure is inactive: 8.86%.
As for `Cc1ccc(O)cc1`, the “activity change, positive = activation” value is inactive: 5.76%.
As for `CCS(=O)(=O)c1cccc(C(=O)Nc2ccc(-c3nc4ccccc4s3)c(O)c2)c1`, the figure is inactive: -1.51%; as for `COc1ccc(-c2csc(-c3c(N)c(C(=O)c4ccccc4)n4ccccc34)n2)cc1OC`, inactive: -8.34%.
As for `COc1ccccc1N1CCN(C(=O)CSc2nc3ccccc3nc2Cc2ccc(C)cc2)CC1`, the figure is inactive: -12.3%.
As for `COc1cc(NS(=O)(=O)c2cc(Br)cc3c2N(C(=O)C2CC2)CC3)cc(OC)c1`, the figure is inactive: -96.2%; as for `CN(C)c1nc(N(C)C)nc(N(C)C)n1`, “inactive”; as for `COc1cc(N2CCC(C(N)=O)CC2)ccc1Nc1nc(N)c(Cl)c(Nc2ccccc2S(=O)(=O)C(C)C)n1`, inactive: -30.2%.
In the case of `CCN(CCCNC(=O)c1nn(-c2ccc(OC)c(Cl)c2)c(=O)c2c1c1ccccc1n2C)c1ccccc1`, the “activity change, positive = activation” value is inactive: -17.2%.
As for `Cc1ccc(CN2CCN(C3CCN(S(=O)(=O)N(C)C)CC3)C(=O)C2=O)cc1`, the figure is inactive: 3.18%.
As for `CC1CCN(C(=O)Cn2c(SCC(=O)Nc3ccc(F)cc3)nc3ccccc32)CC1`, the figure is inactive: 0%; as for `COc1ccc(OC)c(CNC(=O)CSc2c3c(nc4cc(Cl)ccc24)CCCC3)c1`, inactive: -21%.
As for `O=C(Nc1cccc(C(F)(F)F)c1)Nc1ccc2snnc2c1`, the figure is inactive: -62%; as for `CCOC(=O)c1c(NC(=O)c2ccc(S(=O)(=O)N(CC)CC)cc2)sc2c1CCCCC2`, inactive: -17.4%; as for `Cc1cc(S(=O)(=O)Nc2ccc(O)c(Sc3nc4ccccc4s3)c2)ccc1Cl`, inactive: -18.4%.
Regarding `CCc1ccc(CN(Cc2cn[nH]c2-c2ccc(OC)cc2)C(=O)Nc2ccc(Br)cc2)cc1`, the “activity change, positive = activation” value was inactive: -58.1%.
As for `CN(C)c1ccc(C(CNS(=O)(=O)c2ccc(F)cc2F)N2CCOCC2)cc1` (stereo not given), the figure is inactive: -21.1%; as for `Cc1ccc(CCNC(=O)CN(c2ccc(C(C)C)cc2)S(=O)(=O)c2c(C)nn(C)c2C)cc1`, inactive: -10.9%; as for `CCN(CC)C(=O)CSc1nc2cc3c(cc2c(=O)n1CCCC(=O)NCc1ccc(OC)cc1)OCO3`, inactive: -15.3%.
As for `CCOc1ccc(Cc2cc([C@@H]3O[C@H](CO)[C@@H](O)[C@H](O)[C@@H]3O)ccc2Cl)cc1`, the figure is inactive: -3.89%; as for `O=C(NCCC1=CCCCC1)c1ccc2c(c1)N(Cc1ccccc1)C(=O)c1ccccc1S2=O` (stereo not given), inactive: -33.8%.
Consider `CCn1c(SCC(=O)Nc2c(C)cccc2C)nnc1-c1nonc1NC(C)=O`, for which the “activity change, positive = activation” value is inactive: -18.3%.
The value for `Cc1ccc(C(=O)N2CCCCC2CCN2CCCCC2)cc1` (stereo not given) was inactive: -3.3%; that for `CSc1nnc2n(-c3cccc(C)c3)c(=O)c3c4c(sc3n12)CCCC4` was inactive: -0.982%.
The value for `COc1ccc(S(=O)(=O)c2c(O)c(C)cc(NC(=O)c3ccccc3)c2C(C)C)cc1` was inactive: -22.3%; that for `CCn1c(=O)n(CC)c2cc(N3CCCC3)c(NC(=O)Nc3cc(C)cc(C)c3)cc21` was inactive: -42.7%; that for `COc1ccccc1N1CCN(C(=O)c2ccc(Nc3nc4ccccc4n4nnnc34)cc2)CC1` was inactive: -22.1%.
The value for `O=C(Nc1ccccc1F)c1oc2ccccc2c1NC(=O)c1c(F)cccc1F` was inactive: -4.81%; that for `Cc1cccn2c(=O)cc(COc3cccc(NC(=O)c4cccc(Cl)c4)c3)nc12` was inactive: -4.71%.
